From patent US20250332227A1, “PEROXIDASE BASED BIOCONTROL AGENTS” (ACIES BIO D.O.O., priority 2022, published 2025)

Legend:
[1] = system: Lyngbya sp. PCC 8106 peroxidase LspPOX, mature protein amino acids 117-661 of SEQ ID NO: 12 (His6-tag); settings: ABTS 0.025-10 mM, phosphate pH 6.0, 25° C.
[2] = system: Lyngbya sp. PCC 8106 peroxidase LspPOX, mature protein amino acids 117-661 of SEQ ID NO: 12 (His6-tag); settings: ABTS 0.025-10 mM
[3] = system: Lyngbya sp. PCC 8106 peroxidase LspPOX, mature protein amino acids 117-661 of SEQ ID NO: 12 (His6-tag); settings: ABTS 0.025-5 mM
[4] = system: Hydrocoleum sp. heme peroxidase HydPOX fragment HydPOXs (amino acids 117 to 659 of SEQ ID NO: 1, without proregion), SEQ ID NO: 18 / 26 (His6-tag); settings: ABTS 0.025-5 mM
[5] = system: Lyngbya sp. PCC 8106 peroxidase LspPOX, mature protein amino acids 117-661 of SEQ ID NO: 12 (His6-tag)
[6] = system: Hydrocoleum sp. heme peroxidase HydPOX fragment HydPOXs (amino acids 117 to 659 of SEQ ID NO: 1, without proregion), SEQ ID NO: 18 / 26 (His6-tag)
[7] = biological target: T1, Okeania hirsuta heme peroxidase OkePOX fragment OkePOXs (amino acids 117 to 659 of SEQ ID NO: 11, without proregion), SEQ ID NO: 25 / 27 (His6-tag) (Okeania hirsuta, UniProt A0A3N6PIS3)
T1 sequence (A0A3N6PIS3 117-659): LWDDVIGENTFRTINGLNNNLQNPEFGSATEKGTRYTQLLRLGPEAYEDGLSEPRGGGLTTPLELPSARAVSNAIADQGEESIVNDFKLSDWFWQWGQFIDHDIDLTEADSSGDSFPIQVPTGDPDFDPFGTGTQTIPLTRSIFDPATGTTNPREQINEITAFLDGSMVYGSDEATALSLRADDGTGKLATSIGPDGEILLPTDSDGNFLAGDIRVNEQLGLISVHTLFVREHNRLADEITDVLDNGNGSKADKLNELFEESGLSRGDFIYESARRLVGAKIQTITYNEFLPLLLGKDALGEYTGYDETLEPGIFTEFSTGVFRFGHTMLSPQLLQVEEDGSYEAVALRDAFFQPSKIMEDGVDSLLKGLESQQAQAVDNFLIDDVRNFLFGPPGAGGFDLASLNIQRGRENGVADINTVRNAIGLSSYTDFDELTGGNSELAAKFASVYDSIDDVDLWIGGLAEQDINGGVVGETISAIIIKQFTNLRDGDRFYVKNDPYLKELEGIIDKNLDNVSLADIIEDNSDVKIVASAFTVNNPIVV

[8] = 100 μM H2O2, 6.45 nM peroxidase, sodium acetate pH 5.0, 25° C.
[9] = 100 μM H2O2, sodium acetate pH 5.0, 25° C.
[10] = KI 0.03-4 mM, 0.1 mM H2O2, 100 μM thymol blue, phosphate pH 7.2, room temperature, sigmoidal fit
[11] = KI 0.03-4 mM, 0.1 mM H2O2, phosphate pH 7.2, room temperature

Compound | Vmax ([1]; 10 nM peroxidase) | kcat [1] | Vmax ([2]; 100 μM H2O2, 10 nM peroxidase, phosphate pH 6.0, 25° C.) | kcat ([2]; 100 μM H2O2, phosphate pH 6.0, 25° C.) | Vmax [3, 8] | kcat [3, 9] | Vmax [4, 8] | Km [4, 9] | kcat [4, 9] | Vmax [5, 10] | kcat [5, 11] | kcat/K0.5 ([5]; KI, 0.1 mM H2O2, pH 7.2) | Vmax [6, 10] | kcat [6, 11] | kcat/K0.5 ([6]; KI, 0.1 mM H2O2, pH 7.2) | Vmax [7, 10] | kcat [7, 11] | kcat/K0.5 ([7]; KI, 0.1 mM H2O2, pH 7.2)
CCn1c(=NN=c2sc3cc(S(=O)(=O)O)ccc3n2CC)sc2cc(S(=O)(=O)O)ccc21 [ABTS, 2,2′-azino-bis (3-ethylbenzothiazoline-6-sulfonic acid)] | 0.0149 nmol/s | 7.45 s⁻¹ | 0.00076 µmol/min | 6.3 s⁻¹ | 0.004 µmol/min | 57 s⁻¹ | 0.0073 µmol/min | 560 µM | 95 s⁻¹ |  |  |  |  |  |  |  |  | 
[I-].[K+] [iodide] |  |  |  |  |  |  |  |  |  | 0.0029 µmol/min | 14.7 s⁻¹ | 10600 M⁻¹ s⁻¹ | 0.0021 µmol/min | 10.6 s⁻¹ | 85100 M⁻¹ s⁻¹ | 0.0027 µmol/min | 13.7 s⁻¹ | 118600 M⁻¹ s⁻¹

Where two headings read alike, the source gives them in different places.
